Experimental data reported in the RNAGym collection of RNA variant scans (doi:10.7554/elife.90254).
Read counts are not given, so values of variants with three or more changes are uncertain.

B1: LINE1-mini (parent)
chain: GGCAGAGCUCAACACAGCGUGGCAAAGUGGCUGUGGCUAGACUGCC

Variants of: B1
Assay: self-cleavage, relative activity (ratio to wild type); higher = more cleavage; in vitro, sequencing; the parent is a self-cleaving ribozyme

With GGCAAAGCUCAACACAGCGUGGCAAAGUGGCUGUGCCUAGACUGCA as the variant, how does the self-cleavage read?
The self-cleavage was 0.14.

With GGCAAAGCUCAACACAGCGUGGCAAAGUGGCUGUGGCUACAGUGCC as the variant, how does the self-cleavage read?
Its self-cleavage is 0.02.

For GGCAAAGCUCAACACAGCGUGGCAAAGUGGCUGUGGCUACACUGUC, which self-cleavage is on record?
Its self-cleavage is 0.15.

For GGCAAAGCACUAUACAGCGUGGCAAGGUGGCUGUGCCUAGACUGCC, which self-cleavage is on record?
Its self-cleavage is 0.03.

Which self-cleavage does the source give for GGCAAAGCAGAACACAGCGUGCCAAAGUGGCUGUGGUUAGACUGCC here?
Its self-cleavage is 0.03.

With GGCAAAGCACAACACAGCGUGGUAAUGUGGCUGCGGCUAGACUGCC as the variant, how does the self-cleavage read?
The self-cleavage was 0.39.

Which self-cleavage does the source give for GGCAAAGCACAACACAGCGUGGCAAAGUGGCUGUGGUUAGUCUGGC here?
Its self-cleavage is 0.07.

For GGCAAAGCACAACACAUCGUGGCAAAGUGGCUGCGGCUAGACCGCC, which self-cleavage is on record?
Its self-cleavage is 0.09.

Which self-cleavage does the source give for GGCAAAGCACAACACAGCGUGGCAAAGUGGCUGUGACUAGACUGCC here?
Its self-cleavage is 0.13.

For GGCAAAGCACAACACAGCGUGGCAAAGUGGCAGUGGGUAGAUUGCC, which self-cleavage is on record?
The self-cleavage was 0.1.

Which self-cleavage does the source give for GGCAAAGCCAAACACAGCGUGGCAAAGUGGCUGUGGCCAGACCGGC here?
Its self-cleavage is 0.02.

Which self-cleavage does the source give for GGCAAAGCCCAAAACAGCGUGUCAAAGUGGCUGUGGCUAGACUGCC here?
Its self-cleavage is 0.01.

With GGCAAAGCCCAAUACAGCGUUGCAAAGUGGCUGUGGCUAGACUGCC as the variant, how does the self-cleavage read?
The self-cleavage was 0.05.

Which self-cleavage does the source give for GGCAAAGCCCAACACAGCGUGGCAAAGUGGCUGUGUCUAGACUGCC here?
Its self-cleavage is 0.02.

With GGCAAAGCCCAACACAGCGAGGCGAAGUGGCUGUGGCUAGACAGCC as the variant, how does the self-cleavage read?
Its self-cleavage is 0.01.

Which self-cleavage does the source give for GGCAAAGCGCGACACAGCGUGGAAAAGUGGCUGUGGCUAGACUCCC here?
The self-cleavage was 0.02.

Which self-cleavage does the source give for GGCAAAGCGCAACACAGCGUGGCAAAGUGGCUGUGGCUUGACUGCC here?
Its self-cleavage is 0.11.

Which self-cleavage does the source give for GGCAAAGCGCAACACACCGUGGCGAAGUGGCUGCGGCUAUAGUGCC here?
The self-cleavage was 0.24.

With GGCAAAGCGCAACACAUCGUGGCAAAGUGGCUGUGGCUAGACUGCC as the variant, how does the self-cleavage read?
Its self-cleavage is 0.09.

Which self-cleavage does the source give for GGCAAAGCGCAACACAGCGUGUAAAAGUGGCUGUGGCUAGACUGCC here?
The self-cleavage was 0.08.

Which self-cleavage does the source give for GGCAAAGCUCAACACAGCGACGCAAUGUGACUGUGGCUAGAAUGCC here?
The self-cleavage was 0.14.

Which self-cleavage does the source give for GGCAAAGCUCAACACAGCGAGUCAAAGUAGCUGUGGCUUGACUGCC here?
The self-cleavage was 0.03.

With GGCAAAGCUCAACACAGCGAGGCAAACGGGCUGUGGCUAGACUGCC as the variant, how does the self-cleavage read?
Its self-cleavage is 0.12.

For GGCAAAGCUCAACACAGCGAGGCAAAGUGGCUGUGCCUAGACUGCC, which self-cleavage is on record?
The self-cleavage was 0.03.

Which self-cleavage does the source give for GGCAAAGCUCAACACAGCGCAGCAAAGUGGCUGAGGCUAGACAGCC here?
Its self-cleavage is 0.

With GGCAAAGCUCAACACAGCGCGGCAAAGUGCCUGUGGUUAGACUGCC as the variant, how does the self-cleavage read?
The self-cleavage was 0.04.

For GGCAAAGCUCAACACAGCGGGGCAAAGUGGCUGUGGGUAGACUGCC, which self-cleavage is on record?
The self-cleavage was 0.07.

With GGCAAAGCUCAACACAGCGGAGCAAAGCGGCUGUGGCUAGAAUGCC as the variant, how does the self-cleavage read?
The self-cleavage was 0.02.

With GGCAAAGCUCAACACAGCGGGGCAAAGUGGCUGCGGCUAGACUGCC as the variant, how does the self-cleavage read?
The self-cleavage was 0.02.

With GGCAAAGCUCAACACAGCGUGGCAAAGAGGAUGUGGCUAGACUGCC as the variant, how does the self-cleavage read?
The self-cleavage was 0.11.

For GGCAAAGCUCAACACAGCGUGGCAAAGAGGCUGUGGUUAGACUGCC, which self-cleavage is on record?
The self-cleavage was 0.12.

Which self-cleavage does the source give for GGCAAAGCUCAACACAGCGUGGCAAAGAGGCUGUAGCUAGUCCGCC here?
Its self-cleavage is 0.08.

With GGCAAAGCUCAACACAGCGUGGCAAAGCGACUGUGGGUAGACUGCC as the variant, how does the self-cleavage read?
Its self-cleavage is 0.01.

For GGCAAAGCUCAACACAGCGUGGCAAAGCGCCUGUGGCUAGGCUGCU, which self-cleavage is on record?
Its self-cleavage is 0.04.

With GGCAAAGCUCAACACAGCGUGGCAAAGCGGCAGGGGCGAGACUGCC as the variant, how does the self-cleavage read?
The self-cleavage was 0.02.

For GGCAAAGCUCAACACAGCGUGGCAAAGCGGCUGAGGCUAGACUGCC, which self-cleavage is on record?
Its self-cleavage is 0.05.

Which self-cleavage does the source give for GGCAAAGCUCAACACAGCGUGGCAAAGGGGCUGCGGCUAGACUGCC here?
Its self-cleavage is 0.02.

Which self-cleavage does the source give for GGCAAAGCUCAACACAGCGUGGCAAAGUGGCAGUGACUAGACUGCC here?
The self-cleavage was 0.09.

With GGCAAAGCUCAACACAGCGUGGCAAAGUGGCCGUGGUUAGACUGCC as the variant, how does the self-cleavage read?
The self-cleavage was 0.03.

Which self-cleavage does the source give for GGCAAAGCUCAACACAGCGUGGCAAAGUGGCCGUGCCUAGACUGCA here?
The self-cleavage was 0.03.

Which self-cleavage does the source give for GGCAAAGCUCAACACAGCGUGGCAAAGUGGCGGUGGCUCGACUGGC here?
Its self-cleavage is 0.07.

With GGCAAAGCUCAACACAGCGUGGCAAAGUGGCUGCGGCUGGACUGCG as the variant, how does the self-cleavage read?
Its self-cleavage is 0.01.

For GGCAAAGCUCAACACAGCGUGGCAAAGUGGCUGCGGUUACACUGCC, which self-cleavage is on record?
The self-cleavage was 0.07.

For GGCAAAGCUCAACACAGCGUGGCAAAGUGGCUGCGACUCGACUGCC, which self-cleavage is on record?
The self-cleavage was 0.08.

For GGCAAAGCUCAACACAGCGUGGCAAAGUGGCUGGGCCUAGACUGCC, which self-cleavage is on record?
Its self-cleavage is 0.02.

Which self-cleavage does the source give for GGCAAAGCUCAACACAGCGUGGCAAAGUGGCUGGGGCGAGACUGCC here?
Its self-cleavage is 0.04.

With GGCAAAGCUCAACACAGCGUGGCAAAGUGGCUGUGGCGAGACUGCG as the variant, how does the self-cleavage read?
The self-cleavage was 0.06.

With GGCACCGCUCUAAACAGCGUGGCUAAGUGUCUGUGGCUAGAAUGCC as the variant, how does the self-cleavage read?
The self-cleavage was 0.01.

For GGCACCGCUCAACACAGCGUGGCAAAGUGGCUGUGGCUAGACUGCG, which self-cleavage is on record?
The self-cleavage was 0.08.

Which self-cleavage does the source give for GGCACCGCUCAACACAGCGUGGCAAAUUGGCUGUGGCUAGACUGCA here?
Its self-cleavage is 0.19.

With GGCACCGCUCAACACAGCGUGGCAAAGUAGCUGUGGCUAGACAGCC as the variant, how does the self-cleavage read?
Its self-cleavage is 0.17.

With GGCACCGCUCAACACAGCGUGGCAAAGUGGCUUUGGCUAGACUACC as the variant, how does the self-cleavage read?
Its self-cleavage is 0.07.

For GGCACGGCUCAGAACAGCGGUGCAAAGUGGCUGUGGCUAGACUGCC, which self-cleavage is on record?
The self-cleavage was 0.04.

With GGCACGGCUCAACACGGCGGGGCAAAGUGGCUGUGGCUAGAAUGCC as the variant, how does the self-cleavage read?
The self-cleavage was 0.05.

Which self-cleavage does the source give for GGCACGGGUCAACACAGCGUGGCAAAUCGGCUGUGGCUAGAUUGCC here?
Its self-cleavage is 0.04.

With GGCACGGCUGAACACAGCGUGGCAAAGUGGCUGUGGCUAGACUGCC as the variant, how does the self-cleavage read?
The self-cleavage was 0.03.
